Assay results published in a compilation of properties of binary mixtures (doi:10.1016/j.molliq.2012.02.014).
Some of these densities may be calculated back from excess volumes.

Test: xn = mol fraction of the nth substance listed
Details: 101 kPa

CN(CCO)CCO + CCCCCC[n+]1ccn(C)c1.O=S(=O)([N-]S(=O)(=O)C(F)(F)F)C(F)(F)F
x1 = 1
Details	mass density [kg/m3]
308.15 K	1029.5
323.15 K	1018

CCCCCC[n+]1ccn(C)c1.O=S(=O)([N-]S(=O)(=O)C(F)(F)F)C(F)(F)F + CN(CCO)CCO
mass density [kg/m3]
Details	x2 = 0	x2 = 0.0989	x2 = 0.1899	x2 = 0.2977	x2 = 0.3999	x2 = 0.4988	x2 = 0.6075	x2 = 0.7049	x2 = 0.801	x2 = 0.899
303.15 K	–	1351.6	1336.7	1317.2	1298	1275.6	1245.3	1211.4	–	1112.7
308.15 K	1360	–	1332.1	1312.6	–	1271.1	1240.8	1207	1164.9	1108.7
313.15 K	1355.4	1342.4	1327.5	1308	–	1266.5	–	1202.6	1160.6	–
318.15 K	1350.9	1337.9	1322.9	1303.5	1284.3	1262	1231.9	–	1156.3	1100.5
323.15 K	1346.3	1333.3	1318.3	–	1279.6	1257.4	1227.3	–	1152	1096.4
